{"source": "PubChem BioAssay AID504332", "about": "(National Center for Advancing Translational Sciences (NCATS), 2011)", "note": "The whole screen tested about 350,000 compounds, of which about 31,000 (8.9%) were called active. The inconclusive results got no clear call from the source; some entries with a clear call stand among them for comparison. Calls follow the shape of the dose curve; as a rule, active = well fitted inhibition curve with a large enough effect; inconclusive = small, poorly fitted or top-dose-only effect; inactive = no such curve, though single readings can be large or run the other way. Potencies beside an inconclusive call are fits to weak or partial responses and may not hold up. % is scaled to controls: 0 for no effect and ±100 for the full control effect; potency is read from the fitted curve at half-maximal effect; tags tell the direction and shape of the fitted curve.", "data": [{"target": "Histone-lysine N-methyltransferase EHMT2 (Homo sapiens) (UniProt Q96KQ7)", "sequence (Q96KQ7 whole entry, looked up)": "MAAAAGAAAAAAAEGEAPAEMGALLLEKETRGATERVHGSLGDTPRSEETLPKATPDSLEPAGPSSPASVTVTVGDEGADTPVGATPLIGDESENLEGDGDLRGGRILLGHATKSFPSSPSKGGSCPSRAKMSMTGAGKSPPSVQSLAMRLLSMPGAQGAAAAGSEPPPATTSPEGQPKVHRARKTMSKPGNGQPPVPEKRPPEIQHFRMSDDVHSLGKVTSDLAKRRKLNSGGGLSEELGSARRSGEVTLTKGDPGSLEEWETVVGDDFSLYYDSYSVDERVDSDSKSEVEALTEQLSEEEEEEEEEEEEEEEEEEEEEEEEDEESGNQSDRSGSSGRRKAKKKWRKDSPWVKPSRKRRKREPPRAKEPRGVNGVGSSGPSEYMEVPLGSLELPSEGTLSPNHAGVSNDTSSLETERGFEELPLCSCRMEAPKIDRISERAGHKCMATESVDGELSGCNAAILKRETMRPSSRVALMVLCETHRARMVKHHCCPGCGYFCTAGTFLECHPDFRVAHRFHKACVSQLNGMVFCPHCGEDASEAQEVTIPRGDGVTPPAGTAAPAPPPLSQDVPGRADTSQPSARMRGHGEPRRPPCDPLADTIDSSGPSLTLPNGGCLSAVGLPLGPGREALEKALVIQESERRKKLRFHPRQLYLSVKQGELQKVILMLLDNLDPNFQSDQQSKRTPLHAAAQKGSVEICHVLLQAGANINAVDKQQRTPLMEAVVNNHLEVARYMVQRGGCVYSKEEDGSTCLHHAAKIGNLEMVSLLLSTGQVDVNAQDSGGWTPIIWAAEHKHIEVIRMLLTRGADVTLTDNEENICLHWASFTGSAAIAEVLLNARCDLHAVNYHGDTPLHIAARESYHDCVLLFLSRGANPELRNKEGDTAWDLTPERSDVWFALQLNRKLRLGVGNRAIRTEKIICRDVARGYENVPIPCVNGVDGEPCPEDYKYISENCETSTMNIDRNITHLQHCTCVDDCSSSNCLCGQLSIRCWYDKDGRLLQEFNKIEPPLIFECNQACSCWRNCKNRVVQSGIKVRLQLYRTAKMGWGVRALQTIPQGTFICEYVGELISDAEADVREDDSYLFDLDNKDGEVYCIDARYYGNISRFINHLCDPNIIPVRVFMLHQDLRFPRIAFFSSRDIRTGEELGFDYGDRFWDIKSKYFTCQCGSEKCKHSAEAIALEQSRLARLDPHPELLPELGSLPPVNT", "experiment": "qHTS Assay for Inhibitors of Histone Lysine Methyltransferase G9a; also: nearly all actives have a fitted effect of over 75% in size", "details": "G9a H3K9 monomethylation, AlphaScreen, 2 h; activity, negative = inhibition: at 59 µM (top of the series) unless noted", "outline": "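AlphaScreen read-out: biotin-H3K9 peptide (500 nM) methylation by 20 nM enzyme with 20 uM SAM, 2 h at room temperature after 15 min compound preincubation; anti-monomethyl H3K9 antibody plus donor/acceptor beads, 10 min dark.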", "values": [{"compound": "COC(=O)c1cc(NC(=O)c2ccccc2)c(=O)oc1/C=C/Nc1ccc(Oc2ccccc2)cc1", "activity, negative = inhibition": "inactive: -0.0782% [at 102 µM]"}, {"compound": "CC(=O)c1cccc(S(=O)(=O)NCC(C)(C)N2CCOCC2)c1", "Potency": "inconclusive: 89.1 µM [inhibitor, single point]"}, {"compound": "COc1ccc(NC(=O)CSc2nnc(-c3ccncc3)n2-c2ccccc2)cc1", "Potency": "inconclusive: 7.08 µM [inhibitor, partial curve, poor fit]"}, {"compound": "CN1CCN(C(=O)c2ccc3c(c2)N(Cc2ccc(F)cc2)C(=O)c2ccccc2S3(=O)=O)CC1", "Potency": "inconclusive: 28.2 µM [inhibitor, partial curve]"}, {"compound": "COc1ccccc1N1CCN(CC(O)COc2ccc(Cl)c(C)c2)CC1", "note": "(stereo unspecified)", "Potency": "inconclusive: 31.6 µM [inhibitor, single point]"}, {"compound": "Cn1c(CCc2ccccc2)n[nH]c1=S", "Potency": "inconclusive: 79.4 µM [inhibitor, partial curve, poor fit]"}, {"compound": "Cn1c(N)c(C#N)c2c(c1=S)CSC(C)(C)C2", "Potency": "active: 25.1 µM"}, {"compound": "Cc1cc(-c2csc(N)n2)c(C)n1-c1ccccc1", "Potency": "active: 11.2 µM"}, {"compound": "CC(C)(C)OC(=O)NCC12C=CC(O1)C1C(=O)N(Cc3ccccc3)C(=O)C12", "note": "(stereo unspecified)", "Potency": "active: 10 µM"}, {"compound": "CCOc1ccccc1N1CSC2=C(C#N)C(c3c(OC)ccc4ccccc34)CC(=O)N2C1", "note": "(stereo unspecified)", "Potency": "active: 0.562 µM"}, {"compound": "O=C(O)c1cccc(NC(=O)C23CC4CC(C2)CC(n2cnc(Cl)n2)(C4)C3)c1", "Potency": "inconclusive: 89.1 µM [inhibitor, single point]"}, {"compound": "COc1ccc(C(=O)CSc2nc(N)nc(SC)c2C#N)cc1", "Potency": "inconclusive: 6.31 µM [inhibitor, single point]"}, {"compound": "COc1ccc(OC)c(NC(=O)c2nc(S(=O)(=O)Cc3ccc(F)cc3)ncc2Cl)c1", "Potency": "active: 7.08 µM"}, {"compound": "O=C(Nc1ccccc1NC(=O)c1c(F)c(F)c(F)c(F)c1F)c1c(F)c(F)c(F)c(F)c1F", "activity, negative = inhibition": "inactive: -1.56% [at 12.7 µM]"}, {"compound": "CCCCOc1ccc(C(=O)N/C(=C/C=C/c2ccccc2)C(=O)NCCO)cc1", "Potency": "inconclusive: 39.8 µM [inhibitor, single point]"}, {"compound": "Nc1c(C(=O)CSc2nnc(Nc3ccc(F)cc3)s2)c(=O)[nH]c(=O)n1C1CC1", "Potency": "inconclusive: 7.08 µM [inhibitor, single point]"}, {"compound": "Cc1nnc(NC(=O)CSc2ccc(-c3cccnc3)nn2)s1", "Potency": "inconclusive: 89.1 µM [inhibitor, partial curve, poor fit]"}, {"compound": "Cc1ccc(S(=O)(=O)CCC(=O)Nc2nc(-c3ccccn3)cs2)cc1", "activity, negative = inhibition": "inactive: 15.2% [at 12.7 µM]"}, {"compound": "NC(=O)C1CCN(c2csc3ccc(F)cc3c2=O)CC1", "activity, negative = inhibition": "inactive: -0.198%"}, {"compound": "CCOC(=O)C(C)Sc1nnc(NC(=O)c2ccc(C)c([N+](=O)[O-])c2)s1", "note": "(stereo unspecified)", "Potency": "inconclusive: 39.8 µM [inhibitor, single point]"}, {"compound": "NC(=O)Oc1cccc(OC(N)=O)c1", "activity, negative = inhibition": "inactive: 7.68% [at 12.7 µM]"}, {"compound": "CCCCSc1nnc2c(n1)OC(c1ccc(Br)s1)Nc1ccccc1-2", "note": "(stereo unspecified)", "Potency": "active: 7.08 µM"}, {"compound": "S=C(Nc1ccc2nsnc2c1)NC1CCCCC1", "Potency": "inconclusive: 28.2 µM [inhibitor, single point]"}, {"compound": "COc1cc(/C=C(\\C#N)c2nnc(N3CCOCC3)n2-c2ccccc2)ccc1O", "Potency": "inconclusive: 28.2 µM [inhibitor, partial curve, poor fit]"}, {"compound": "O=C(Nc1ccc(S(=O)(=O)N2CCOCC2)cc1)c1ccc2c(c1)S(=O)(=O)c1ccccc1C2=O", "activity, negative = inhibition": "inactive: 1.21% [at 12.7 µM]"}, {"compound": "COc1cc(S(=O)(=O)N(Cc2ccco2)C2CCCC2)ccc1-n1cnnn1", "Potency": "active: 31.6 µM"}, {"compound": "Cc1ccc(CNC(=O)Cn2ccc3cc(S(=O)(=O)N4CCCC4)ccc32)o1", "Potency": "inconclusive: 89.1 µM [inhibitor, single point]"}, {"compound": "CC(=O)Nc1ccc(S(=O)(=O)CCC#N)cc1", "Potency": "inconclusive: 8.91 µM [inhibitor, single point]"}, {"compound": "CCCCSCCCNC(=O)CS(=O)Cc1nc(-c2cccc(C)c2)oc1C", "note": "(stereo unspecified)", "Potency": "inconclusive: 22.4 µM [inhibitor, partial curve, poor fit]"}, {"compound": "COC(=O)c1sccc1NC(=O)c1c(-c2ccccc2)noc1C", "Potency": "inconclusive: 2.24 µM [inhibitor, partial curve, poor fit]"}, {"compound": "Cc1cc(/C=C2/NC(=O)NC2=O)c(C)n1-c1ccc(N2CCOCC2)cc1", "Potency": "active: 44.7 µM"}, {"compound": "COc1cc2c(cc1OC)C(COc1ccc(C(C)C)cc1)NCC2", "note": "(stereo unspecified)", "activity, negative = inhibition": "inactive: 12.5% [at 0.0925 µM]"}, {"compound": "CC(=O)C1=C(O)C(=O)N(c2cccc(Br)c2)C1c1ccc(Br)cc1", "note": "(stereo unspecified)", "Potency": "inconclusive: 89.1 µM [inhibitor, single point]"}, {"compound": "O=C(Nc1ccc(Cl)cc1)NC1CCCC1Cc1ccco1", "note": "(stereo unspecified)", "Potency": "inconclusive: 2.24 µM [inhibitor, partial curve, poor fit]"}, {"compound": "CC(C)Cn1cc(NC(=O)N2CCN(c3cccc(C(F)(F)F)c3)CC2)c2ccccc2c1=O", "activity, negative = inhibition": "inactive: -31.6%"}, {"compound": "COc1cc(NC(=O)C2C3C=CC(C3)C2C(=O)O)ccc1NC(=O)c1ccccc1", "note": "(stereo unspecified)", "activity, negative = inhibition": "inactive: -1.66% [at 102 µM]"}]}]}
